This note sets out measurements from PubChem BioAssay AID1508642 (National Center for Advancing Translational Sciences (NCATS), 2021).

The structures appear in SMILES notation. The whole screen tested about 43,000 compounds, of which about 200 (0.47%) were called active. Roughly 12% stayed inconclusive and do not appear here. Calls come from the whole dose curve; as a rule, active = well fitted cell-killing curve with a large enough effect; inconclusive = small, poorly fitted or top-dose-only effect, or effect the other way; inactive = flat fitted curve, though single readings scatter. Some of the results follow.
% is set by controls: 0 for no effect and ±100 for the full control effect.

This test can be described thus: Cell viability qHTS assay in S16 Pmp22-F2sN cells. Note: nearly all actives have a fitted effect of over 65% in size. The note with it: S16 Pmp22-F2sN Schwann cells (luciferase reporters placed in the Pmp22 gene) viability, CellTiter-Glo, 24 h; series mostly up to 57.5 µM; activity change, negative = cytotoxicity: at the top concentration. The method in brief:
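Seed 500-1,000 S16 Pmp22-F2sN cells per well in phenol-red-free DMEM with 10% heat-inactivated FBS; pin-add 23 nL compound; incubate 24 h at 37C; add CellTiter-Glo, wait 15 min protected from light; read luminescence.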
Take `O=C(Nc1ccc2oc(-c3cccnc3)nc2c1)c1ccc(-c2cccc(OC(F)(F)F)c2)o1`: the “activity change, negative = cytotoxicity” value was inactive: 7.81%. In the case of `COc1cccc(N2CCN(C(=O)c3ccc(CS(=O)c4cccc(Cl)c4)o3)CC2)c1` (centres undefined), the “activity change, negative = cytotoxicity” value was inactive: -14%. Turning to `O=C(NCCc1ccc(Cl)cc1)c1ccc2c(c1)N(Cc1ccccc1)CCS2`, the “activity change, negative = cytotoxicity” value was inactive: 9.02%. In the case of `COc1ccc(NC(=O)c2nc(SCc3ccccc3F)ncc2Cl)cc1`, the “activity change, negative = cytotoxicity” value is inactive: -6.19%.

Regarding `Cc1ccc(C)c(NC(=O)CCc2c(C)n(C)c3cc(-c4ccccc4C)nn3c2=O)c1`, the “activity change, negative = cytotoxicity” value was inactive: -0.0712%. With `COc1cccc(CNS(=O)(=O)c2cc(Br)cc3c2N(C(C)=O)C(C)C3)c1` (centres undefined), the “activity change, negative = cytotoxicity” value was inactive: 19.4%. In the case of `O=C(CSCc1cnn(-c2ccccc2)c1-n1cccc1)NCc1ccccc1F`, the “activity change, negative = cytotoxicity” value is inactive: 2.52%. As for `CCCCOc1ccc(S(=O)(=O)n2nc(C)c(S(=O)(=O)N3CCC(C)CC3)c2C)cc1`, the “activity change, negative = cytotoxicity” value was inactive: 15%. As for `Cc1ccn2c(Nc3ccc4c(c3)OCO4)c(-c3ccc(O)cc3)nc2c1`, the “activity change, negative = cytotoxicity” value was inactive: -4.11%.

Turning to `CCCOC(=O)C(C)n1nnc2sc(-c3ccccc3)cc2c1=O` (centres undefined), the “activity change, negative = cytotoxicity” value is inactive: -1.05%.

Turning to `Cc1ccc(-n2nc(C(=O)N3CCN(c4ccccc4)CC3)c(=O)n(C)c2=O)cc1`, the “activity change, negative = cytotoxicity” value is inactive: -12.7%.

Consider `COC(=O)c1ccccc1NC(=O)c1nc(S(=O)(=O)Cc2ccccc2F)ncc1Cl`, for which the “activity change, negative = cytotoxicity” value was inactive: 8.09%.

With `COc1cccc(CC(=O)NCc2ccc3c(c2)CCN3C(C)=O)c1`, the “activity change, negative = cytotoxicity” value is inactive: 10.6%. As to `CN(C)S(=O)(=O)Nc1ccc(-c2cn3ccsc3n2)cc1`, the “activity change, negative = cytotoxicity” value was inactive: 12.6%. As for `CCc1ccccc1NC(=O)C1CCN(c2nn3c(=O)cc(C)nc3s2)CC1`, the “activity change, negative = cytotoxicity” value was inactive: 0.55%.

Consider `Cc1cccc(Cc2cnc(NC(=O)c3ccc4c(c3)CC(c3ccccc3)OC4=O)s2)c1` (centres undefined), for which the “activity change, negative = cytotoxicity” value was inactive: 8.68%. In the case of `CCc1ccc(-n2c(=O)c3c4c(sc3n(CC(=O)NCCCOC)c2=O)CCC4)cc1`, the “activity change, negative = cytotoxicity” value is inactive: 16.1%. As for `Cc1ccc2oc(C(=O)Nc3ccc(S(=O)(=O)N(C)Cc4ccccc4)cc3)cc(=O)c2c1`, the “activity change, negative = cytotoxicity” value is inactive: -24.1%. Take `Cc1ccc(C)c(N2CCN(S(=O)(=O)c3cnc(N)nc3)CC2)c1`: the “activity change, negative = cytotoxicity” value is inactive: -0.0546%.

Regarding `Cc1ccc2nc(N3CCN(c4cccc(C)c4C)CC3)c3nncn3c2c1`, the “activity change, negative = cytotoxicity” value was inactive: 0.0677%. For the molecule `Cc1ccc(NC(=O)Cn2c(=O)n(Cc3ccc4c(c3)OCO4)c(=O)c3ccccc32)c(C)c1`, the “activity change, negative = cytotoxicity” value was inactive: 12.1%. `CCCCc1ccc(NC(=O)CSc2nc3ccccc3nc2N2CCOCC2)cc1`: the “activity change, negative = cytotoxicity” value was inactive: -4.57%.

Turning to `O=C(Nc1cc(Cl)cc(Cl)c1)c1ccc(F)c(S(=O)(=O)NC2CCCCC2)c1`, the “activity change, negative = cytotoxicity” value was inactive: -10.1%. `COc1ccc(CCNC(=O)CCSCc2ccccc2Cl)cc1OC`: the “activity change, negative = cytotoxicity” value was inactive: 4.3%.

For the molecule `CC(C)c1ccc2oc(-c3ccc(NC(=O)c4cc5ccccc5o4)cc3)nc2c1`, the “activity change, negative = cytotoxicity” value was inactive: 4.72%. In the case of `CCOC(=O)c1ccc2c(c1)N(Cc1ccccc1)C(=O)c1ccccc1S2`, the “activity change, negative = cytotoxicity” value was inactive: 8.84%.

In the case of `CC(C)CCn1c(=O)c2sccc2n2c(CCCC(=O)NC3CCC(C)CC3)nnc12` (centres undefined), the “activity change, negative = cytotoxicity” value was inactive: 20.9%. Consider `COC(=O)c1cnc(N2CCN(c3ccc(F)cc3)CC2)c2ccccc12`, for which the “activity change, negative = cytotoxicity” value is inactive: -2.93%. `Cc1cccc(OCC(=O)N(Cc2ccccc2)c2ccccn2)c1`: the “activity change, negative = cytotoxicity” value was inactive: 16.1%. To `COc1ccc(OCC(=O)Nc2ccccc2C(=O)OCc2cc(=O)n3nc(C)sc3n2)cc1` belongs inactive: 4.89%. Regarding `COc1cc(-c2nc(-c3cccc(Cl)c3)c(-c3ccccc3)[nH]2)cc(OC)c1OC`, the “activity change, negative = cytotoxicity” value is inactive: 0.761%. Turning to `O=C(NCCN1CCCCC1)c1ccc(Cn2c(SCc3cccc(F)c3)nc3cccnc32)cc1`, the “activity change, negative = cytotoxicity” value is inactive: 3.78%. With `COC(=O)c1ccc(CSc2nc3c(c(=O)[nH]2)CCC3)cc1`, the “activity change, negative = cytotoxicity” value is inactive: -5.88%.

As for `CC1CCC(NC(=O)c2ccc(CS(=O)(=O)c3c(Cl)cccc3Cl)o2)CC1` (centres undefined), the “activity change, negative = cytotoxicity” value is inactive: 5.65%. Consider `O=C(CC1N=C2c3ccccc3N=C(SCc3cccc(F)c3)N2C1=O)NCc1ccc2c(c1)OCO2` (centres undefined), for which the “activity change, negative = cytotoxicity” value is inactive: -24.6%. For `CCC(O)c1cc2c(cc1NC(=O)c1ccccc1F)OCCO2` (centres undefined), the “activity change, negative = cytotoxicity” value was inactive: 2.11%. For `Cc1ccc(OCC(=O)Nc2cccc(C(=O)OCc3cc(=O)n4nc(C)sc4n3)c2)cc1`, the “activity change, negative = cytotoxicity” value was inactive: -24.3%.

Turning to `O=C(O)c1ccc(NC(=O)c2cn(-c3ccccc3)nc2-c2ccc(Br)cc2)cc1`, the “activity change, negative = cytotoxicity” value was inactive: -15.8%. To `Cc1ccc2c(c1C)NC(=O)CC2c1ccc(Cl)cc1Cl` (centres undefined) belongs inactive: 12.5%.

For `CCc1ccc(OCC(=O)Nc2ccc(-c3nc4ncccc4o3)cc2)cc1`, the “activity change, negative = cytotoxicity” value is inactive: -8.83%. To `Cc1ccc(-c2cc(C(=O)Oc3ccccc3Cl)no2)cc1C` belongs inactive: -0.354%. Turning to `Cc1ccc2nc(Cl)c3cc(C(=O)NC4CCC(C)CC4)sc3c2c1` (centres undefined), the “activity change, negative = cytotoxicity” value was inactive: 4.74%.

Take `COc1cccc(CNC(=O)C(=O)Nc2ccc3nc4n(c(=O)c3c2)CCCCC4)c1`: the “activity change, negative = cytotoxicity” value was inactive: 10.5%. For `COc1ccc(NC(=O)CN(C)S(=O)(=O)c2cnc[nH]2)cc1Cl`, the “activity change, negative = cytotoxicity” value is inactive: -1.59%. `Cc1ccc(-c2[nH]c(-c3ccccc3)nc2SCC(=O)NCC2CCCO2)cc1` (centres undefined): the “activity change, negative = cytotoxicity” value is inactive: -5.31%.

For the molecule `CCc1cccc(C)c1NC(=O)Cn1ccn(Cc2ccc(Cl)cc2)c(=O)c1=O`, the “activity change, negative = cytotoxicity” value was inactive: 2%. The same measure for `COc1ccc(-c2noc(COc3ccc(Br)cc3C)n2)cc1OC`: inactive: -14.8%. To `O=C(NCC1CCN(Cc2cccc(Cl)c2)CC1)c1cc2ccc3cccnc3c2[nH]1` belongs inactive: 2.96%; to `CCN(Cc1ccccc1)C(=O)CN1C(=O)COc2ccc(S(=O)(=O)N(CC)CC)cc21`, inactive: 17.7%.
